The record followed here is the supplement of paper PMC6206098.

The test system of one data set is HeyA8. Description: cell viability relative to lipid-only control; higher = less toxic. Conditions: concentration: 10 nM; 96 h; Homo sapiens. As for the experimental part: (§1)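 Arrayed screen of 4096 siRNA duplexes, each carrying one of all possible 6mer seeds at guide-strand positions 2-7 in a fixed neutral 19mer scaffold (constant flanks: U at position 1, then ACAUGUAAACCA, plus a 3' AA overhang). The passenger strand is 2'-O-methylated at positions 1-2 so only the guide strand loads into RISC. Duplexes were reverse-transfected at 10 nM with RNAiMAX in triplicate in 384-well plates; viability was read by CellTiter-Glo ATP content 96 h after transfection. Values are % viability normalised to lipid-only wells (HeyA8, H460, M565) or to siNT1 (3LL).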

In the next data set the test system is H460. Described as above. Conditions: concentration: 10 nM; 96 h; Homo sapiens. As for the experimental part: as §1
Another data set has as its system M565. The description is as above. Conditions: concentration: 10 nM; 96 h; Mus musculus. As for the experimental part: as §1
For another data set, the system named is 3LL. The data set can be described thus: cell viability relative to siNT1 control; HeyA8 human ovarian and H460 human lung cancer; M565 mouse liver and 3LL mouse lung cancer; siNT1 is a non-toxic control siRNA; higher = less toxic. Particulars: concentration: 10 nM; 96 h; Mus musculus. As for the experimental part: as §1

± gives the uncertainty stated by the source. Shown are siRNA guide strands that differ only in the seed, positions 2 to 7.
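For cell viability relative to siNT1 control in this document: Luminescence-based viability of cells reverse transfected in 384-well plates with lipid-complexed siRNAs built on a non-toxic 19mer backbone whose passenger strand carries 2′-O-methyl groups at positions 1 and 2, triplicates.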

In general, cell viability refers to a read-out of living cells in per cent, often relative to untreated cells. As to UCUUCCGACAUGUAAACCAAA, the cell viability in the data set on HeyA8 was 81.4 ± 6.2%; in the data set with H460 it was 64.7 ± 12%; in the data set with M565 it was 60.9 ± 14%; with 3LL, 75 ± 18%.
Take UGGGUGGACAUGUAAACCAAA: the cell viability is 1.65 ± 0.11% in the data set on HeyA8, 3.81 ± 0.34% with H460, 9.23 ± 2.1% in the data set on M565 and 13.9 ± 3.8% in the data set on 3LL.
Consider UGUAUUGACAUGUAAACCAAA, for which the cell viability in the data set with HeyA8 stood at 78.7 ± 14%; in the data set on H460, 76.7 ± 7.1%; with M565, 49 ± 13%; in the data set on 3LL, 90.1 ± 3.5%.
Take UCGACGCACAUGUAAACCAAA: the cell viability with HeyA8 was determined as 72 ± 4.9%; in the data set with H460, 61 ± 1.9%; in the data set on M565 it was 64 ± 5%; in the data set with 3LL, 76.9 ± 12%.
Regarding UGCCAUCACAUGUAAACCAAA, the cell viability with HeyA8 stood at 11 ± 0.9%; with H460 it was 14.8 ± 1.5%; in the data set with M565, 6.79 ± 8.8%; with 3LL, 25.2 ± 7.6%.
With UUACUUUACAUGUAAACCAAA, the cell viability with HeyA8 is 71.45 ± 0.39%; in the data set with H460 it was 69.9 ± 5.1%; with M565, 73.3 ± 14%; with 3LL, 91.7 ± 4.9%.
Consider UCAGCGAACAUGUAAACCAAA, for which the cell viability in the data set on HeyA8 came out at 77.8 ± 14%; in the data set with H460, 74.1 ± 5.8%; in the data set on M565 it was 75.5 ± 2.9%; with 3LL, 99.4 ± 18%.
Regarding UCUAGGUACAUGUAAACCAAA, the cell viability in the data set with HeyA8 was 73.1 ± 2.5%; in the data set on H460 it was 40 ± 2.9%; in the data set on M565 it was 48.7 ± 11%; in the data set on 3LL, 82.6 ± 12%.
Taken in the same sequence, the figures for UAAUCCUACAUGUAAACCAAA were 76.7 ± 4.1%, 58.5 ± 5.2%, 60.3 ± 8.8% and 37 ± 6.5%.
For the sequence UUUUCUGACAUGUAAACCAAA, the cell viability with HeyA8 came to 93.9 ± 4.2%; in the data set on H460 it was 70.6 ± 5%; in the data set on M565, 101 ± 4.8%; in the data set on 3LL, 92.1 ± 6%.
Turning to UAGGGCGACAUGUAAACCAAA, the cell viability worked out at 43.5 ± 3.2% in the data set on HeyA8, 51 ± 2.1% in the data set with H460, 30.9 ± 7.3% in the data set with M565 and 63.1 ± 8.8% with 3LL.
UUGGUGUACAUGUAAACCAAA: the cell viability with HeyA8 was 77.1 ± 4.7%; in the data set with H460, 69.5 ± 7.4%; in the data set with M565, 70.1 ± 23%; in the data set with 3LL, 81.3 ± 2.6%.
Taken in the same sequence, the figures for UGGCCAAACAUGUAAACCAAA were 54 ± 7.7%, 59.2 ± 12%, 34.2 ± 0.51% and 54.7 ± 9.5%.
On to UAUGCCCACAUGUAAACCAAA, for which the cell viability in the data set on HeyA8 is 68.8 ± 3.4%; in the data set on H460, 57.9 ± 7.6%; with M565 it was 60 ± 10%; in the data set with 3LL, 16.6 ± 2.6%.
With UAUAGCCACAUGUAAACCAAA, the cell viability in the data set with HeyA8 stood at 37.7 ± 3.4%; with H460, 19.5 ± 1.1%; in the data set with M565 it was 12.9 ± 2.4%; with 3LL, 5.69 ± 0.3%.
Take UUGCAUUACAUGUAAACCAAA: the cell viability with HeyA8 came to 66.5 ± 4.3%; in the data set on H460, 74.6 ± 6.7%; in the data set on M565, 101 ± 11%; with 3LL, 79.7 ± 4.8%.
Consider UCUAUCGACAUGUAAACCAAA, for which the cell viability in the data set on HeyA8 was found to be 80 ± 2.1%; in the data set with H460, 78.2 ± 0.89%; with M565, 80.5 ± 18%; in the data set with 3LL it was 95 ± 16%.
For UAACUUAACAUGUAAACCAAA, the cell viability came out at 94.4 ± 24% in the data set on HeyA8, 59.1 ± 3.6% with H460, 88 ± 8.4% in the data set with M565 and 94 ± 7% in the data set with 3LL.
Turning to UGCAAUUACAUGUAAACCAAA, the cell viability in the data set on HeyA8 was determined as 54 ± 1.8%; in the data set on H460 it was 63.6 ± 5.8%; in the data set on M565, 56.6 ± 6.8%; in the data set on 3LL, 68.9 ± 16%.
Turning to UGGCGGUACAUGUAAACCAAA, the cell viability was found to be 2.38 ± 0.3% in the data set on HeyA8, 15.5 ± 2.1% in the data set on H460, 17.4 ± 1% in the data set on M565 and 26.1 ± 1.5% in the data set on 3LL.
On to UCCCAAGACAUGUAAACCAAA, for which the cell viability in the data set with HeyA8 worked out at 77.1 ± 10%; in the data set on H460, 60.2 ± 6%; in the data set on M565, 66.9 ± 18%; in the data set on 3LL, 101 ± 11%.
Turning to UGCUGAAACAUGUAAACCAAA, the cell viability with HeyA8 came out at 59.3 ± 5.7%; in the data set on H460 it was 73.1 ± 8.8%; with M565 it was 33.5 ± 2.9%; in the data set on 3LL, 79 ± 1.5%.
As to UAAUCAUACAUGUAAACCAAA, the cell viability in the data set with HeyA8 was determined as 95 ± 4.5%; in the data set on H460, 76.9 ± 8.3%; with M565 it was 80.4 ± 4.5%; in the data set with 3LL it was 113 ± 6.7%.
In the case of UUCAAGGACAUGUAAACCAAA, the cell viability amounted to 65.6 ± 4.3% in the data set with HeyA8, 50.1 ± 3.1% in the data set with H460, 26.2 ± 1.6% in the data set on M565 and 42.8 ± 4.7% in the data set with 3LL.
In the case of UAAGAAUACAUGUAAACCAAA, the cell viability came to 88.8 ± 5.5% in the data set on HeyA8, 102 ± 5.8% in the data set with H460, 65 ± 4.8% in the data set with M565 and 84.7 ± 8.2% with 3LL.
For the sequence UUGCCAAACAUGUAAACCAAA, the cell viability is 84.8 ± 5.1% with HeyA8, 60.2 ± 4.5% in the data set on H460, 37.2 ± 11% in the data set with M565 and 46.8 ± 13% in the data set on 3LL.
Take UUUAGCCACAUGUAAACCAAA: the cell viability in the data set with HeyA8 turned out to be 55.3 ± 7.2%; in the data set with H460, 38.2 ± 4.6%; in the data set with M565, 30.7 ± 1.8%; in the data set on 3LL, 10.5 ± 1.5%.
As to UGCAUUAACAUGUAAACCAAA, the cell viability with HeyA8 came to 80.2 ± 12%; in the data set with H460, 76.9 ± 18%; in the data set on M565, 75.6 ± 4.1%; with 3LL it was 90.4 ± 9.2%.
